Results reported in the supplement of paper PMC9927326.
MIC of clinical C. albicans isolates, CLSI broth microdilution (ranges and time not stated); higher = less susceptible. Call: susceptible or wild type [S] / resistant or non-wild type [R] by CLSI breakpoints or epidemiological cut-offs; intermediate and dose-dependent carry no call here (the paper groups them with resistant). '<=' and '>=' mark each drug's lowest and highest value, inferred; the source prints them plain. Isolates are numbered anew.

What was measured:
Experiment in all cases: CLSI broth microdilution.
itraconazole = compound: CCC(C)n1ncn(-c2ccc(N3CCN(c4ccc(OCC5COC(Cn6cncn6)(c6ccc(Cl)cc6Cl)O5)cc4)CC3)cc2)c1=O [itraconazole]
micafungin = compound: CCCCCOc1ccc(-c2cc(-c3ccc(C(=O)N[C@H]4C[C@@H](O)[C@@H](O)NC(=O)[C@@H]5[C@@H](O)[C@@H](C)CN5C(=O)[C@H]([C@H](O)CC(N)=O)NC(=O)[C@H]([C@H](O)[C@@H](O)c5ccc(O)c(OS(=O)(=O)O)c5)NC(=O)[C@@H]5C[C@@H](O)CN5C(=O)[C@H]([C@@H](C)O)NC4=O)cc3)no2)cc1 [micafungin]
anidulafungin = compound: CCCCCOc1ccc(-c2ccc(-c3ccc(C(=O)N[C@H]4C[C@@H](O)[C@@H](O)NC(=O)[C@@H]5[C@@H](O)[C@@H](C)CN5C(=O)[C@H]([C@@H](C)O)NC(=O)[C@H]([C@H](O)[C@@H](O)c5ccc(O)cc5)NC(=O)[C@@H]5C[C@@H](O)CN5C(=O)[C@H]([C@@H](C)O)NC4=O)cc3)cc2)cc1 [anidulafungin]
posaconazole = compound: CC[C@@H]([C@H](C)O)n1ncn(-c2ccc(N3CCN(c4ccc(OC[C@@H]5CO[C@@](Cn6cncn6)(c6ccc(F)cc6F)C5)cc4)CC3)cc2)c1=O [posaconazole]
caspofungin = compound: CC[C@H](C)C[C@H](C)CCCCCCCCC(=O)N[C@H]1C[C@@H](O)[C@@H](NCCN)NC(=O)[C@@H]2[C@@H](O)CCN2C(=O)[C@H]([C@H](O)CCN)NC(=O)[C@H]([C@H](O)[C@@H](O)c2ccc(O)cc2)NC(=O)[C@@H]2C[C@@H](O)CN2C(=O)[C@H]([C@@H](C)O)NC1=O [caspofungin]
voriconazole = compound: C[C@@H](c1ncncc1F)[C@](O)(Cn1cncn1)c1ccc(F)cc1F [voriconazole]
amphotericin B = compound: C[C@@H]1[C@H](O)[C@@H](C)/C=C/C=C/C=C/C=C/C=C/C=C/C=C/[C@H](O[C@@H]2O[C@H](C)[C@@H](O)[C@H](N)[C@@H]2O)C[C@@H]2O[C@](O)(C[C@@H](O)C[C@@H](O)[C@H](O)CC[C@@H](O)C[C@@H](O)CC(=O)O[C@H]1C)C[C@H](O)[C@H]2C(=O)O [amphotericin B]
flucytosine = compound: Nc1[nH]c(=O)ncc1F [flucytosine]
fluconazole = compound: OC(Cn1cncn1)(Cn1cncn1)c1ccc(F)cc1F [fluconazole]

| Test System | MIC (itraconazole) | MIC (micafungin) | MIC (anidulafungin) | MIC (posaconazole) | MIC (caspofungin) | MIC (voriconazole) | MIC (amphotericin B) | MIC (flucytosine) | MIC (fluconazole) |
| --- | --- | --- | --- | --- | --- | --- | --- | --- | --- |
| Candida albicans isolate 161 (Erg11p: WT, Fur1p: WT, Tac1p: I558V,A377V,F189S,N174D,M170I,K87N) | ≤ 0.015 mg/L [S] | ≤ 0.008 mg/L [S] | 0.06 mg/L [S] | ≤ 0.008 mg/L [S] | 0.03 mg/L [S] | ≤ 0.008 mg/L [S] | 0.25 mg/L [S] | ≤ 0.06 mg/L [S] | ≤ 0.12 mg/L [S] |
| Candida albicans isolate 128 (Erg11p: E266D, Fur1p: WT, Tac1p: T885K,I558V,A430V,A377V,F189S,N174D,M170I,M170V,K87N) | 0.03 mg/L [S] | 0.015 mg/L [S] | 0.12 mg/L [S] | 0.015 mg/L [S] | 0.03 mg/L [S] | ≤ 0.008 mg/L [S] | 0.25 mg/L [S] | ≤ 0.06 mg/L [S] | ≤ 0.12 mg/L [S] |
| Candida albicans isolate 157 (Erg11p: E266D, Fur1p: WT, Tac1p: N896S,A377V,N174D,M170I,I109N,K87N) | 0.03 mg/L [S] | ≤ 0.008 mg/L [S] | ≤ 0.015 mg/L [S] | 0.015 mg/L [S] | 0.015 mg/L [S] | ≤ 0.008 mg/L [S] | 0.5 mg/L [S] | ≤ 0.06 mg/L [S] | 0.25 mg/L [S] |
| Candida albicans isolate 71 (Erg11p: Y132H,T123I, Fur1p: R101C, Tac1p: WT) | 0.12 mg/L [S] | ≤ 0.008 mg/L [S] | ≤ 0.015 mg/L [S] | 0.06 mg/L [S] | 0.03 mg/L [S] | 0.5 µg/mL | 0.5 mg/L [S] | 0.25 mg/L [S] | 4 µg/mL |
| Candida albicans isolate 200 (Erg11p: V437I,E266D, Fur1p: WT, Tac1p: C908Y,N896S) | 0.03 mg/L [S] | 0.015 mg/L [S] | ≤ 0.015 mg/L [S] | 0.015 mg/L [S] | 0.03 mg/L [S] | ≤ 0.008 mg/L [S] | 0.5 mg/L [S] | ≤ 0.06 mg/L [S] | 0.25 mg/L [S] |
| Candida albicans isolate 111 (Erg11p: V488I,E266D, Fur1p: WT, Tac1p: N896S) | 0.03 mg/L [S] | 0.015 mg/L [S] | 0.12 mg/L [S] | 0.015 mg/L [S] | 0.03 mg/L [S] | ≤ 0.008 mg/L [S] | 0.25 mg/L [S] | ≤ 0.06 mg/L [S] | 0.25 mg/L [S] |
| Candida albicans isolate 325 (Erg11p: G472R, Fur1p: R101C, Tac1p: WT) | ≤ 0.015 mg/L [S] | 0.015 mg/L [S] | ≤ 0.015 mg/L [S] | 0.015 mg/L [S] | 0.03 mg/L [S] | ≤ 0.008 mg/L [S] | 0.25 mg/L [S] | ≤ 0.06 mg/L [S] | ≤ 0.12 mg/L [S] |
| Candida albicans isolate 103 (Erg11p: Y257H,A114S, Fur1p: R101C, Tac1p: A736V) | 0.5 mg/L [R] | 0.015 mg/L [S] | ≤ 0.015 mg/L [S] | 0.5 mg/L [R] | 0.03 mg/L [S] | 0.5 µg/mL | 0.25 mg/L [S] | ≤ 0.06 mg/L [S] | 16 mg/L [R] |
| Candida albicans isolate 261 (Erg11p: Y257H,A114S, Fur1p: R101C, Tac1p: A736V) | 0.5 mg/L [R] | 0.015 mg/L [S] | ≤ 0.015 mg/L [S] | 0.5 mg/L [R] | 0.03 mg/L [S] | 1 mg/L [R] | 0.5 mg/L [S] | 0.12 mg/L [S] | 32 mg/L [R] |
| Candida albicans isolate 340 (Erg11p: G465S,Y132H, Fur1p: R101C, Tac1p: WT) | 0.06 mg/L [S] | 0.015 mg/L [S] | ≤ 0.015 mg/L [S] | 0.015 mg/L [S] | 0.015 mg/L [S] | 0.12 mg/L [S] | 0.5 mg/L [S] | 0.25 mg/L [S] | 2 mg/L [S] |
| Candida albicans isolate 262 (Erg11p: Q295E,E266D, Fur1p: WT, Tac1p: N896S) | 0.06 mg/L [S] | 0.015 mg/L [S] | 0.06 mg/L [S] | 0.03 mg/L [S] | 0.06 mg/L [S] | 0.015 mg/L [S] | 0.5 mg/L [S] | ≤ 0.06 mg/L [S] | 1 mg/L [S] |
| Candida albicans isolate 77 (Erg11p: Y257H,A114S, Fur1p: R101C, Tac1p: A736V) | 0.25 mg/L [R] | ≤ 0.008 mg/L [S] | ≤ 0.015 mg/L [S] | 0.12 mg/L [R] | 0.015 mg/L [S] | 0.25 µg/mL | 0.5 mg/L [S] | 0.12 mg/L [S] | 4 µg/mL |
| Candida albicans isolate 66 (Erg11p: WT, Fur1p: WT, Tac1p: I558V,A377V,F189S,N174D,M170I,K87N) | 0.03 mg/L [S] | 0.015 mg/L [S] | ≤ 0.015 mg/L [S] | 0.015 mg/L [S] | 0.015 mg/L [S] | ≤ 0.008 mg/L [S] | 0.5 mg/L [S] | ≤ 0.06 mg/L [S] | 0.5 mg/L [S] |
| Candida albicans isolate 301 (Erg11p: V437I,E266D, Fur1p: WT, Tac1p: N896S,I895T,M170V) | 0.06 mg/L [S] | 0.015 mg/L [S] | 0.06 mg/L [S] | 0.03 mg/L [S] | 0.03 mg/L [S] | ≤ 0.008 mg/L [S] | 0.25 mg/L [S] | ≤ 0.06 mg/L [S] | 0.5 mg/L [S] |
| Candida albicans isolate 110 (Erg11p: V437I,E266D, Fur1p: WT, Tac1p: T885K,R869Q,T782A,I558V,A377V,T353S,F189S,M170V) | 0.12 mg/L [S] | ≤ 0.008 mg/L [S] | ≤ 0.015 mg/L [S] | 0.03 mg/L [S] | 0.03 mg/L [S] | 0.015 mg/L [S] | 0.5 mg/L [S] | ≤ 0.06 mg/L [S] | 1 mg/L [S] |
| Candida albicans isolate 86 (Erg11p: V488I,E266D, Fur1p: WT, Tac1p: N896S,I895T,V279L) | ≤ 0.015 mg/L [S] | 0.015 mg/L [S] | ≤ 0.015 mg/L [S] | 0.015 mg/L [S] | 0.03 mg/L [S] | ≤ 0.008 mg/L [S] | 0.5 mg/L [S] | ≤ 0.06 mg/L [S] | 0.5 mg/L [S] |
| Candida albicans isolate 51 (Erg11p: K342R,E266D, Fur1p: WT, Tac1p: I558V,A377V,F189S,N174D,M170I,K87N) | 0.06 mg/L [S] | 0.015 mg/L [S] | 0.06 mg/L [S] | 0.015 mg/L [S] | 0.03 mg/L [S] | ≤ 0.008 mg/L [S] | 0.25 mg/L [S] | ≤ 0.06 mg/L [S] | 1 mg/L [S] |
